Laboratory results: paper PMC5283754
No constants are given. Whether binding was seen depends on the method and setting. For part of these data: Binding seen in cells or lysates may run through a third protein. Some binding calls cover weakened binding; strength is not graded here. For part of these data: Tags and fused reporters may be left off the sequences shown.

Chains of the proteins cited; added tags and fusions are not shown. Lines headed by an entry give the natural chain unless they say otherwise; changes in a name come on top.
UniProt Q96EP0: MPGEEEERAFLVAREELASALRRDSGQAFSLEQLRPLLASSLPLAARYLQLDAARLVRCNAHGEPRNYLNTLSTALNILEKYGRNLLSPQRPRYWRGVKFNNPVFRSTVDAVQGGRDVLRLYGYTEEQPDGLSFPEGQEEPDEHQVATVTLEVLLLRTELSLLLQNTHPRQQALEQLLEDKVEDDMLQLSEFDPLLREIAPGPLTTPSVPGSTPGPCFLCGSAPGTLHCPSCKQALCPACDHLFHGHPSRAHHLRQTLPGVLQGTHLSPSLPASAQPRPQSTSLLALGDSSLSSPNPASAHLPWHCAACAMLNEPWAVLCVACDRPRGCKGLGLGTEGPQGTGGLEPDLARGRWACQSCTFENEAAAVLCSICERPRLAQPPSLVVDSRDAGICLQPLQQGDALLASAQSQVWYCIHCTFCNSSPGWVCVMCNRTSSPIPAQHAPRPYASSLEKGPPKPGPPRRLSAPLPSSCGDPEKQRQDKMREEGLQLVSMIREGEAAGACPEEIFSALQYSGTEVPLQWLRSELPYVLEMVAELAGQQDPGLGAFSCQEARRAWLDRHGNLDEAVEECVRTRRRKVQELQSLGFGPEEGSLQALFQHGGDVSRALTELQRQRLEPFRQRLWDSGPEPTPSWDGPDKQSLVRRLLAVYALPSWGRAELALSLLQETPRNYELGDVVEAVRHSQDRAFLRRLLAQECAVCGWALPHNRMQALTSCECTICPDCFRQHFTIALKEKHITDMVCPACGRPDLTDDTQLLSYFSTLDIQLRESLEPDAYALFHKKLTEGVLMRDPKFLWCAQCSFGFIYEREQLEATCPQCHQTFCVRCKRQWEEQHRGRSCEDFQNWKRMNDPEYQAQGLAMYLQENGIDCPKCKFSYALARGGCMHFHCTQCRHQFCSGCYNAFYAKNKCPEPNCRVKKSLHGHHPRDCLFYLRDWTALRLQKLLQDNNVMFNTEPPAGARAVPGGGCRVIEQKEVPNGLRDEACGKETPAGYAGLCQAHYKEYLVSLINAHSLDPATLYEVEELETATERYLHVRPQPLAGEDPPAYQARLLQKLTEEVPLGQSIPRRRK
UniProt Q9BYM8: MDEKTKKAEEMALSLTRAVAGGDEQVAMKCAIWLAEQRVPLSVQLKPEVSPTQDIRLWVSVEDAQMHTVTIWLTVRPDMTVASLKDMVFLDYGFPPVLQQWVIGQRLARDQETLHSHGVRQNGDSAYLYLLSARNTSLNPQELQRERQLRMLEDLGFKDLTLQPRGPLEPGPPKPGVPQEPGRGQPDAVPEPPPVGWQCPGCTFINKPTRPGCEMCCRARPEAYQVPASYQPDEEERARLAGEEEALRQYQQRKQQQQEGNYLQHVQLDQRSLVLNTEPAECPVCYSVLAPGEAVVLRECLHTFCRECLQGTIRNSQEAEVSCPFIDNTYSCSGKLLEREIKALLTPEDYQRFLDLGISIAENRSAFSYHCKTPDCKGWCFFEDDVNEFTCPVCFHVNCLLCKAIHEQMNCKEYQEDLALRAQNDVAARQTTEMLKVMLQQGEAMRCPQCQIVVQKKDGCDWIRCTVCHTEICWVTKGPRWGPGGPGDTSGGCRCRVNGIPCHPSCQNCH
UniProt O15111: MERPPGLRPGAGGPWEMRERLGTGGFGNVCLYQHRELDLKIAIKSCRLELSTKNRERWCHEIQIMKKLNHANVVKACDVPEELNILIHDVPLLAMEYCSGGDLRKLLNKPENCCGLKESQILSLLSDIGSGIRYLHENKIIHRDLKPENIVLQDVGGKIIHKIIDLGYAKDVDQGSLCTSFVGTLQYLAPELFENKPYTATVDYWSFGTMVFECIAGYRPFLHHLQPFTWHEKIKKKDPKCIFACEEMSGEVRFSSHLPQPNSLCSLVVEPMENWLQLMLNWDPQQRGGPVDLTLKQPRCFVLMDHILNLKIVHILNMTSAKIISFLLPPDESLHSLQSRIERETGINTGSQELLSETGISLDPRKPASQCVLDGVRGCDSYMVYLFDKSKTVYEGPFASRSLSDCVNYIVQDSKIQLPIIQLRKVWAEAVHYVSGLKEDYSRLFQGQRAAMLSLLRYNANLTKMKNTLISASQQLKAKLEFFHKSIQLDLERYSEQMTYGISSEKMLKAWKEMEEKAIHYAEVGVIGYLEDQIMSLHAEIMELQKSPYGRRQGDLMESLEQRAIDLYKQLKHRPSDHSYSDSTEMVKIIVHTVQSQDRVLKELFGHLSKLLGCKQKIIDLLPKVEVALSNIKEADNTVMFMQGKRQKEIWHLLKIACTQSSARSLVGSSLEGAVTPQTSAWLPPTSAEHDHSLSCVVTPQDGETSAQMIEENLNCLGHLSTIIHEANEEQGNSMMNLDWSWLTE

What was measured:
[1] = biological target: recombinant His6-Tax (HTLV-1 Tax) (HTLV-1) (UniProt P03409); experiment: co-IP; recombinant His6-Tax or His6-M22 incubated with Jurkat S-100 cytosolic extract and ATP (2 mM), 30°C 1 h; immunoprecipitation with an anti-Tax antibody, immunoblot; also done with ubiquitin mutants or HA-ubiquitin (50 μM) added (Fig 3D); only the target purified
[2] = biological target: Tax in HTLV-1-infected T cell lines (HTLV-1) (UniProt P03409); experiment: co-IP; cell lysates in IP buffer (150 mM NaCl, 1% NP-40); immunoprecipitation with an anti-Tax antibody, immunoblot; JPX-9 with or without CdCl2 (20 μM, 18 h); HUT102 with control antibody; MT-2 and MT-4 with control or Tax shRNA
[3] = biological target: Tax induced in JPX-9 cells (HTLV-1) (UniProt P03409); experiment: as above
Myc-HOIP = Myc-HOIP (UniProt Q96EP0); experiment: co-IP; HEK293T co-transfected with HOIL-1L-HA or Myc-HOIP (or deletion mutants) and a Tax plasmid, 48 h; immunoprecipitation with anti-HA or anti-Myc, immunoblot with anti-Tax
HOIL-1L-HA = HOIL-1L-HA (UniProt Q9BYM8); experiment: as above
GST-Sharpin = biological target: T1, GST-Sharpin (UniProt Q9H0F6); experiment: pull-down; 300 ng GST fusion protein on glutathione sepharose, 500 ng His6-Tax, 4°C 1 h, 50 mM Tris-HCl pH 7.5, 150 mM NaCl, 1 mM EDTA, 1% Triton X-100, 1 mM DTT, 2.5 mg/ml BSA; immunoblot with anti-Tax; both purified
T1 sequence: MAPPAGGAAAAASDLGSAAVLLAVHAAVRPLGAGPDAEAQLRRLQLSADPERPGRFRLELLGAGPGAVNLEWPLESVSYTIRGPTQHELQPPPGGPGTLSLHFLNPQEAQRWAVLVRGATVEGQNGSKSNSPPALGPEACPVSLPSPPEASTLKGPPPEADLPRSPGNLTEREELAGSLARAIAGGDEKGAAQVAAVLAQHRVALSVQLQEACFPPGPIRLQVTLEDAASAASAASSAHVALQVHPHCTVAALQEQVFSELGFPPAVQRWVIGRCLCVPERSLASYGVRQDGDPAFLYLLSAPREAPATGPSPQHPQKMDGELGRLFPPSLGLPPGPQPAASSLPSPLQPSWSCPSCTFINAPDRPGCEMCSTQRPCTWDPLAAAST

GST-HOIP = GST-HOIP (UniProt Q96EP0); experiment: as above
GST-HOIL-1L = GST-HOIL-1L (UniProt Q9BYM8); experiment: as above

Substance: HOIP (endogenous) (from UniProt Q96EP0 1-1072)
- binding [1]: binds
- binding [2]: binds
- binding [3]: binds

Substance: IKK complex (endogenous) (from UniProt O15111 1-745; O14920 1-756; Q9Y6K9 1-419)
- binding [1]: binds

Substance: Tax expressed in HEK293T cells (from UniProt P03409 1-353)
- binding (Myc-HOIP): binds
- binding (HOIL-1L-HA): binds

Substance: recombinant His6-Tax (HTLV-1 Tax) (from UniProt P03409 1-353)
- binding (GST-Sharpin): no binding (tested: 500 ng of His6-Tax)
- binding (GST-HOIP): binds
- binding (GST-HOIL-1L): binds
